# Test results reported in PubChem BioAssay AID504332 (National Center for Advancing Translational Sciences (NCATS), 2011).
# The campaign covered roughly 350,000 compounds. About 31,000 (8.9%) were called active. The inconclusive results got no clear call from the source; some entries with a clear call stand among them for comparison. Calls come from the whole dose curve; as a rule, active = well fitted inhibition curve with a large enough effect; inconclusive = small, poorly fitted or top-dose-only effect; inactive = no such curve, though single readings can be large or run the other way. A potency beside an inconclusive call is a rough fit, not a confirmed value.
# Target: Histone-lysine N-methyltransferase EHMT2 (Homo sapiens) (UniProt Q96KQ7)
# Test: qHTS Assay for Inhibitors of Histone Lysine Methyltransferase G9a; note: nearly all actives have a fitted effect of over 75% in size
# Conditions: G9a H3K9 monomethylation, AlphaScreen, 2 h; activity, negative = inhibition: at 59 µM (top of the series) unless noted
# Outline: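 AlphaScreen read-out: biotin-H3K9 peptide (500 nM) methylation by 20 nM enzyme with 20 uM SAM, 2 h at room temperature after 15 min compound preincubation; anti-monomethyl H3K9 antibody plus donor/acceptor beads, 10 min dark.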
# % is set by controls: 0 for no effect and ±100 for the full control effect; potency is the fitted concentration of half-maximal effect; tags give direction and shape of the fitted curve.
# UniProt Q96KQ7, sequence (Q96KQ7 whole entry, looked up): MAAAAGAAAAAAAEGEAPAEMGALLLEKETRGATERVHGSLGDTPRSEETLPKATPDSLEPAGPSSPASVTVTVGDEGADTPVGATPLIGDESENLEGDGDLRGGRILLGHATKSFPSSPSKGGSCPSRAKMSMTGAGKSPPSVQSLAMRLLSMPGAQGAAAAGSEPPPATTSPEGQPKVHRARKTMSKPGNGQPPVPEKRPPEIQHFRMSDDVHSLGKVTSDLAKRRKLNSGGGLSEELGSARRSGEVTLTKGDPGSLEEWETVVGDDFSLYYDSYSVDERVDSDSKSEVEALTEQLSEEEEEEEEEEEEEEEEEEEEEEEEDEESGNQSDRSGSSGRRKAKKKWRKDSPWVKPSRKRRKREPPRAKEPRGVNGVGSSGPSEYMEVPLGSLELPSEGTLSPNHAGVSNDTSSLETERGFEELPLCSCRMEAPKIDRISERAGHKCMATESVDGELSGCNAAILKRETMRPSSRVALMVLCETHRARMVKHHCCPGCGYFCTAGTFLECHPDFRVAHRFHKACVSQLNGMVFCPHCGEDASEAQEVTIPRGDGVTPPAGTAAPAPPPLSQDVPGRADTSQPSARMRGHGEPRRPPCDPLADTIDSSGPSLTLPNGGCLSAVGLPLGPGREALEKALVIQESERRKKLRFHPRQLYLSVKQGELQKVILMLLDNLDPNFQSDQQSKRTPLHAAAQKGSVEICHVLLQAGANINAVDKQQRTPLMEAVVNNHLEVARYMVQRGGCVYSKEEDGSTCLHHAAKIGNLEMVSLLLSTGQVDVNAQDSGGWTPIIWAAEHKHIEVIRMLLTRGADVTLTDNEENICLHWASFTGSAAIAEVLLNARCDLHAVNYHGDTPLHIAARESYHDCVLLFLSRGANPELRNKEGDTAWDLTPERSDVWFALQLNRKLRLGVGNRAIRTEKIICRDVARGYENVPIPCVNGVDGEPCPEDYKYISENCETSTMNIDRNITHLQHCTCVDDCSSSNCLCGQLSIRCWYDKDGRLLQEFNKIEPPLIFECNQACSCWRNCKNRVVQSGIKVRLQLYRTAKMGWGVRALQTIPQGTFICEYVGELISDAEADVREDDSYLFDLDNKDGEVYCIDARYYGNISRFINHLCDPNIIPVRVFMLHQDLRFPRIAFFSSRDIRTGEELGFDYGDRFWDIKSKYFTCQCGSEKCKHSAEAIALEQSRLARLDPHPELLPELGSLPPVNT
Structure (SMILES),Potency,"activity, negative = inhibition"
COC(=O)CSCc1nc(-c2ccc(C(=O)OC)cc2)oc1C,inactive,
COc1cc(C2C(C#N)=C(C)NC3=C2C(=O)c2ccccc23)cc(OC)c1OC (stereo not drawn),"inconclusive: 31.6 µM [inhibitor, single point]",
Cc1cccc(C(=O)c2cnc3ccccc3c2-c2ccccc2)c1,"inconclusive: 11.2 µM [inhibitor, partial curve, poor fit]",
C=CCNC(=S)Nc1cc(S(=O)(=O)N2CCOCC2)ccc1-n1cncn1,"inconclusive: 89.1 µM [inhibitor, single point]",
Cc1ccc(-c2cc(C(=O)NN3CCOCC3)c3cc(Br)ccc3n2)o1,"inconclusive: 5.01 µM [inhibitor, single point]",
CCOC(=O)c1ccc(NC(=O)c2c(NCc3cccc(OC)c3)sc3c2CCC3)cc1,active: 7.94 µM,
Cn1ccnc1SCc1ccc(Cl)cc1Cl,active: 8.91 µM,
O=C(Nc1ccc(F)cc1F)c1cc2ccc3cccnc3c2[nH]1,inactive,
O=C(NCCc1cnc[nH]1)c1ccc(-c2ccccc2)cc1,"inconclusive: 79.4 µM [inhibitor, single point]",
O=C(Nc1cccc2ccccc12)C1CCCC1,"inconclusive: 3.16 µM [inhibitor, single point]",
O=C(CC1C(=O)NCCN1CC1CCCCC1)NCc1ccc(Cl)cc1 (stereo not drawn),inactive,
COc1ccc2oc(-c3ccc(C)c(NC(=O)c4sc5ccccc5c4Cl)c3)nc2c1,inactive,
Cc1cc(/C=C2\SC(=O)NC2=O)c(C)n1-c1ccc(N(C)C)cc1,inactive,
CN(NS(C)(=O)=O)c1ncc(C(F)(F)F)cc1Cl,inactive,
COc1ccc(-c2nc(Cn3c(SCc4cccc(F)c4)nc4cccnc43)c(C)o2)cc1,"inconclusive: 7.94 µM [inhibitor, partial curve]",
Cn1cc(S(=O)(=O)N2CCCCCC2)cc1C(=O)Nc1ccccc1F,inactive,
c1ccc(-c2cnnc(SCc3cn4cccnc4n3)n2)cc1,"inconclusive: 89.1 µM [inhibitor, single point]",
CCSc1nnc2c(n1)OC(c1ccc(C(=O)O)cc1)N(C(C)=O)c1ccccc1-2 (stereo not drawn),"inconclusive: 89.1 µM [inhibitor, single point]",
Cc1ccc(S(=O)(=O)NC(CN2CCOCC2)=NCCNS(=O)(=O)c2ccccc2)cc1,"inconclusive: 44.7 µM [inhibitor, partial curve]",
COc1ccc(NC(=O)/C(Cl)=C(/Cl)S(=O)Cc2ccccc2Cl)cn1 (stereo not drawn),active: 10 µM,
Cc1c(Cl)cccc1NC(=S)NN,inactive,
Cc1cccc(CCN(CC(=O)NCc2ccc(F)cc2)C(=O)c2csnn2)c1,inactive,
COc1ccc(C2OCC3(CO2)SC(=O)NC3=O)cc1 (stereo not drawn),"inconclusive: 12.6 µM [inhibitor, single point]",
CC(C)c1ccc(C(=O)Nc2ccc(-c3nc4ccccc4s3)c(Cl)c2)cc1,inactive,
O=C(NNc1ccccc1Br)C(O)(c1cccc(C(F)(F)F)c1)c1cccc(C(F)(F)F)c1,"inconclusive: 89.1 µM [inhibitor, single point]",

Structure (SMILES),Potency,"activity, negative = inhibition"
O=C(O)CN1C(=O)SC(Nc2ccc(C(=O)O)cc2)C1=O (stereo not drawn),"inconclusive: 89.1 µM [inhibitor, single point]",
CCN(CC)CCCn1c(=S)[nH]c2ccc(Cl)cc2c1=O,"inconclusive: 25.1 µM [inhibitor, single point]",
CO/N=C\CC(=O)Nc1ccc(Cl)cc1Cl,inactive,
CNc1nc(NC#N)nc(SC)n1,inactive,
COc1cccc(C(=O)Nc2nc(-c3ccccc3)c(-c3ccccc3)o2)c1,"inconclusive: 17.8 µM [inhibitor, single point]",
C=CCc1ccc(OCCCCN2CC(C)CC(C)C2)c(OC)c1 (stereo not drawn),active: 8.91 µM,
O=C1CCC(=O)N1c1ccc(CSc2nc3ccccc3[nH]2)cc1,"inconclusive: 31.6 µM [inhibitor, single point]",
Cn1nnnc1SCc1ccc(C(=O)Nc2ccccc2F)cc1,inactive,
COc1ccc(/C=C2\SC(N3CCc4ccccc4C3)=NC2=O)cc1OC,active: 12.6 µM,
COc1ccc(N2CCN(C(=O)CN3C(=O)COc4ccccc43)CC2)cc1,"inconclusive: 39.8 µM [inhibitor, partial curve]",
O=C(Cc1ccc([N+](=O)[O-])cc1)c1c(O)cc(O)cc1O,active: 50.1 µM,
Cc1cccc(OCC(=O)Nc2c(C(=O)N3CCN(c4ccccc4)CC3)oc3ccccc23)c1,"inconclusive: 39.8 µM [inhibitor, single point]",
COc1ccc(N2CCN(c3oc(-c4ccccc4C)nc3S(=O)(=O)c3ccccc3)CC2)cc1,"inconclusive: 10 µM [inhibitor, partial curve, poor fit]",
O=C(c1cc(S(=O)(=O)N2CCOCC2)ccc1Cl)N1CCC(Cc2ccccc2)CC1,"inconclusive: 70.8 µM [inhibitor, single point]",
CC(=O)Nc1nc2n(n1)C(c1ccc(Cl)cc1)C=C(C)N2 (stereo not drawn),"inconclusive: 3.16 µM [inhibitor, partial curve, poor fit]",
O=c1c2oc3ccccc3c2ncn1Cc1ccccc1F,"inconclusive: 6.31 µM [inhibitor, single point]",
CC(C)(C)c1cc[n+](CC(=O)Nc2cc(C(F)(F)F)ccc2N2CCOCC2)cc1,inactive,
CCOC(=O)/C=C1\CN(Cc2cc(OC)c(OC)c(OC)c2)S(=O)(=O)c2ccccc21,"inconclusive: 89.1 µM [inhibitor, single point]",
O=C(CSc1nnnn1Cc1ccccc1)Nc1ccccc1,,inactive: 7.78% [at 12.7 µM]
COc1ccc(-c2cc3nc(C)cc(NCCO)n3n2)cc1,"inconclusive: 70.8 µM [inhibitor, partial curve, poor fit]",
COc1ccc(-n2c(Cc3cccn3C)nnc2SCC(=O)Nc2cccc(C)c2C)cc1,active: 44.7 µM,
CC1CC(C)CN(C(=O)CCCn2c(=S)[nH]c3ccccc3c2=O)C1 (stereo not drawn),inactive,
O=C(c1sc2cc([N+](=O)[O-])ccc2c1Cl)N1CCCCC1,"inconclusive: 20 µM [inhibitor, single point]",
CC(=O)OCC1OC(n2ccc(=O)[nH]c2=O)C(O)C1O (stereo not drawn),"inconclusive: 39.8 µM [inhibitor, single point]",
O=c1[nH]n(-c2ccccn2)c(=O)c2ccccc12,"inconclusive: 0.562 µM [inhibitor, full curve]",

Structure (SMILES),Potency,"activity, negative = inhibition"
Cc1cccc(CSc2nc3ccncc3n2Cc2ccc(C(=O)O)cc2)c1,"inconclusive: 22.4 µM [inhibitor, partial curve, poor fit]",
O=C(CN1C(=O)NC2(CCCCCC2)C1=O)N1CCC(Cc2ccccc2)CC1,"inconclusive: 31.6 µM [inhibitor, single point]",
CCCCN(C(=O)C1CCC1)c1c(N)n(CC(C)C)c(=O)[nH]c1=O,inactive,
COCCCNC(=O)C1CC(=O)OC1c1ccc(OC)c(OC)c1 (stereo not drawn),"inconclusive: 70.8 µM [inhibitor, single point]",
CCOc1ccccc1CNC(=O)CCCn1nc(C)c2sc3ccccc3c2c1=O,"inconclusive: 39.8 µM [inhibitor, single point]",
CCN1CCN(c2cc(C)c3cc(NC(=O)c4cc(Br)ccc4Cl)ccc3n2)CC1,"inconclusive: 28.2 µM [inhibitor, single point]",
NS(=O)(=O)c1ccc(CNC(=O)/C=C/c2ccccc2)cc1,"inconclusive: 8.91 µM [inhibitor, single point]",
CCC1(C)COC2(OC1)C(=O)Nc1ccccc12 (stereo not drawn),"inconclusive: 4.47 µM [inhibitor, single point]",
CCN1/C(=C/c2ccc3cc(C)ccc3[n+]2C)Sc2ccc3sccc3c21,active: 15.8 µM,
COC(=O)c1c(C)[nH]c(C(=O)C(C)OC(=O)C2CC2C)c1C (stereo not drawn),,inactive: 15.7% [at 12.7 µM]
CN(C)c1ccc(CNC(=O)Cn2c(=O)oc3cc(S(=O)(=O)NCc4ccccc4)ccc32)cc1,"inconclusive: 7.94 µM [inhibitor, partial curve, poor fit]",
O=C(Nc1ccncc1)c1ccc(Cl)c([N+](=O)[O-])c1,"inconclusive: 4.47 µM [inhibitor, partial curve, poor fit]",
Cc1sc2nc(-c3ccccc3)oc(=O)c2c1C,"inconclusive: 44.7 µM [inhibitor, partial curve, poor fit]",
O=C(O)COc1ccc(/C=N/n2c(COc3ccccc3)nc3ccccc3c2=O)cc1,"inconclusive: 89.1 µM [inhibitor, single point]",
CCCC(=O)Nc1ccc(C(=O)NNC(=S)NC(=O)c2ccc(Br)o2)cc1,active: 39.8 µM,
COc1ccc(C(=O)Nc2cc3cc(Cl)ccc3oc2=O)cc1OC,inactive,
Cc1ccccc1NC(=S)N(Cc1cccnc1)Cc1ccccc1Cl,inactive,
O=C(NCCCNC(=O)c1cccs1)c1cccs1,"inconclusive: 89.1 µM [inhibitor, single point]",
O=C(CCC(=O)Nc1nnc(C2CCCCC2)s1)Nc1ccc(F)cc1,"inconclusive: 79.4 µM [inhibitor, single point]",
CC1(C)Cc2c(C#N)c(N3CCCC3)nc(-c3ccco3)c2CO1,active: 35.5 µM,
CN(c1ccccc1)S(=O)(=O)c1ccc(NC(=S)Nc2ccccc2)cc1,,inactive: 38.3% [at 0.501 µM]
Cc1ccc(C2=NN=C(NC(=O)CSc3nnc4c5ccccc5n(C)c4n3)SC2)cc1,active: 44.7 µM,
CCc1ccc(OCc2nnc(SCCN3CCOCC3)n2CC)cc1,active: 7.08 µM,
